Among the data in PubChem BioAssay AID1851 (National Center for Advancing Translational Sciences (NCATS), 2009) are AC50 values, retold here.

Molecules are shown by their SMILES. This is a selection; strong and weak results do not stand in their true shares. Inconclusive results are not listed. The source made the active and inactive calls. Calls follow the shape of the dose curve; as a rule, active = well fitted curve in the direction sought with a large enough effect; inconclusive = small, poorly fitted or top-dose-only effect, or effect the other way; inactive = no such curve, though single readings can be large or run the other way.

As a reminder, the AC50 is the concentration at which the activity in the assay is half-maximal.

The target in the assay is Cytochrome P450 2C19 (Homo sapiens) (UniProt P33261). The experiment in a line: Cytochrome panel assay with activity outcomes. Particulars: recombinant CYP, pro-luciferin dealkylation, luminescence, p450-cyp2c19; series mostly up to 57.1 µM.
Sequence of UniProt P33261 (P33261 whole entry, looked up): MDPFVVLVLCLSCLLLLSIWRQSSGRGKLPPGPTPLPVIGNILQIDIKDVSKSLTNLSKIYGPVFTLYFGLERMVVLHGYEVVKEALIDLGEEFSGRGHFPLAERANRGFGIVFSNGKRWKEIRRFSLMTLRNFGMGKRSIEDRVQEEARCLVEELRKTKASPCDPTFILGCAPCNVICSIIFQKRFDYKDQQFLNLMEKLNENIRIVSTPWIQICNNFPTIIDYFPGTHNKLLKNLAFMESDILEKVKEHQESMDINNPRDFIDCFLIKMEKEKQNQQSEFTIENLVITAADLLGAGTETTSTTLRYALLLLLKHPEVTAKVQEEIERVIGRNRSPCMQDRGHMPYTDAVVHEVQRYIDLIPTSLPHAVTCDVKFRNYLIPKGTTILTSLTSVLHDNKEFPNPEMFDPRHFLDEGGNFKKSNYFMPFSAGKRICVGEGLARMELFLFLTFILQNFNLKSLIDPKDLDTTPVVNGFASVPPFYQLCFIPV
Turning to `CN1[C@@H]2CC[C@H]1CC(OC(=O)[C@@H](O)c1ccccc1)C2` (some centres not stated), the AC50 result is “inactive”. As for `Clc1ccc(CS[C@@H](Cn2ccnc2)c2ccc(Cl)cc2Cl)cc1`, the AC50 was active: 10 nM.
